# Over roughly 33,000 sequences, “E-score (-0.5 to 0.5)” has its median near -0.041; the highest 2% begin near 0.37. The list shows a part of the results.
# Target: T1, Ecm22 (UniProt Q05958)
# T1 sequence: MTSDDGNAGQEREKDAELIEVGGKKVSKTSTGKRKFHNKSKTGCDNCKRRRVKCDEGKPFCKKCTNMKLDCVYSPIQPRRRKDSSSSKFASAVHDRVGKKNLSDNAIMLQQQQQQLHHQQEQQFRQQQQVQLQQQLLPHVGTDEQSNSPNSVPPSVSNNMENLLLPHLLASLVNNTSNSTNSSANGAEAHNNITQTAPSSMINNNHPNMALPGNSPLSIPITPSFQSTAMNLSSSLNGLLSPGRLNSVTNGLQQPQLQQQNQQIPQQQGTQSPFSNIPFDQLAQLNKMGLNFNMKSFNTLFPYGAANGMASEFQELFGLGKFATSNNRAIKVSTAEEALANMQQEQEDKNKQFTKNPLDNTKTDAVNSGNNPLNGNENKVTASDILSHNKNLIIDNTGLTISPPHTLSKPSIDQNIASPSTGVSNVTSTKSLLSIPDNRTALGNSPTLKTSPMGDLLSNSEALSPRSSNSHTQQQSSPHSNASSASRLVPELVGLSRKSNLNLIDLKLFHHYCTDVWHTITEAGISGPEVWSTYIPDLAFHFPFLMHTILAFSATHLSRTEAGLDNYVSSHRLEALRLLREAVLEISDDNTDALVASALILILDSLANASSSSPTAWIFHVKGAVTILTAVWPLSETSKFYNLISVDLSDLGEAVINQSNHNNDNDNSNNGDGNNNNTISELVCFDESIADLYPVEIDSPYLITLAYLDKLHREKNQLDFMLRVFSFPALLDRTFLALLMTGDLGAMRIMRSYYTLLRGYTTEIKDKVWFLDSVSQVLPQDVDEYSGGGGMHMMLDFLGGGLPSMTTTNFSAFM
# Test: PBM E-score (8-mer binding enrichment) (E-score (-0.5 to 0.5)); higher = stronger / more preferred TF binding; most listed sequences are background and not binding sites
# Settings: protein concentration: 200 nM; construct: GST-full length
# In short: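 The E-score, a modified Wilcoxon-Mann-Whitney statistic, was computed by the Universal PBM Analysis Suite for every ungapped eight-base word pooled with its reverse complement. Scans behind it were normalised with masliner after bound GST-tagged yeast transcription factors were detected with fluorescent anti-GST. The proteins, at about 100-200 nM, had been applied to universal all-10-mer Agilent arrays made double-stranded by primer extension.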
row,Sequence,PBM E-score
1,GACGAGGC,0.163
2,AACACCTT,0.0319
3,AGTAGACT,-0.168
4,ATAGGTTA,0.00491
5,GAATACTA,0.141
6,GACGTTCC,0.141
7,CGGTCCTA,0.0351
8,TGGGGAAA,-0.112
9,ACATTGCT,-0.145
10,AATTCTAA,0.0281
11,CTTGTTGA,0.0392
12,AAACATCG,-0.0242
13,CATAAAAA,-0.00742
14,CCTAAATC,0.00658
15,GGATTCAA,-0.135
16,CAGCATAA,-0.0633
17,GCGAGGGA,0.177
18,ACATTTCC,0.0206
19,CCAAATCC,-0.35
20,ACATGTTG,-0.0256
21,GATTCAGC,0.0384
22,GCCTAGAA,-0.158
23,CAATAATG,-0.0401
24,GAAGACAA,0.131
25,TGAAGAAA,-0.127

row,Sequence,PBM E-score
1,TCCTATAA,-0.174
2,CCACATCC,-0.0751
3,CAGACTGG,-0.242
4,CTATCCGA,0.223
5,GGTTGTAC,0.0985
6,CAAAAATA,0.0647
7,ATGAACGC,0.118
8,GTCGAAAC,-0.0139
9,ATAGCGTC,-0.0303
10,GCCACGCC,-0.205
11,CACTTCGA,0.122
12,CTACAGGC,-0.354
13,TATGGACA,-0.0636
14,CCATGAAC,-0.0999
15,AGAACGGC,0.203
16,ACGTTCGC,0.157
17,ACTGGCTC,-0.201
18,AATCAACG,0.115
19,CAGGTGCG,0.0796
20,AGGTCCCC,-0.33
21,AGTCGTGC,-0.0872
22,AGTTGCAC,-0.042
23,ATGTTAGC,0.011
24,TAGTTAGA,-0.0513
25,ACTCAATC,-0.0264

row,Sequence,PBM E-score
1,CACATCTA,-0.023
2,GTACCCAA,0.105
3,AGTATACC,0.0306
4,GACTAGTC,-0.227
5,CTGCCCTC,-0.216
6,CAGAACCC,0.0344
7,GCGACCAC,0.106
8,AGAACCGA,0.198
9,GCATTTCA,-0.0583
10,AATCCGAA,0.091
11,ATCCGTGG,-0.212
12,ATACATTA,0.0514
13,AGGCGACA,-0.162
14,GATATGGA,0.196
15,AGGTTCGG,0.0855
16,AAGCTGGC,-0.0255
17,CAGGGAAA,0.0935
18,AATGTCCC,-0.211
19,AGACCGGC,-0.00407
20,AGGGGTGA,-0.338
21,CAAACGGG,0.289
22,GCGTAAAC,0.271
23,GAACCGTA,0.248
24,CCGCAGCG,-0.0888
25,CTCGCTGA,-0.0623

row,Sequence,PBM E-score
1,ATAAAACG,0.315
2,ACTTTGGC,0.101
3,ACTATCGA,0.067
4,GGCACAAC,-0.169
5,CAAAGGTA,-0.06
6,TGTTCCAA,-0.0262
7,ACTACTGC,0.0658
8,CCTCACAC,-0.164
9,CGAGCTCC,0.319
10,GCATGAGA,-0.225
11,ACATTGAC,-0.0521
12,CCAACTCA,-0.147
13,GTTCCTAA,0.13
14,GTAGTGGA,-0.0911
15,CCCTCCTC,-0.109
16,ACCACTCG,0.232
17,AGTCTTTG,-0.0796
18,ATAGCAGC,-0.338
19,AAATAAGT,-0.115
20,ATACATAC,0.162
21,ACCCTAGC,-0.188
22,ACGGTTAG,-0.0946
23,GCTGAGGA,-0.215
24,TAACAGCA,0.0291
25,AACAGCAC,0.0118

row,Sequence,PBM E-score
1,AATCCGAG,0.237
2,AGGAATGC,0.014
3,TCTTTCAA,-0.0995
4,GGCCTTGA,-0.0685
5,CTTTGACC,-0.0364
6,AATCTCTC,0.0329
7,ACGTACCA,0.306
8,CGGATTCA,-0.0829
9,GCATCGGA,0.126
10,AGTTTCTG,-0.0553
11,GAGCTTCA,0.0348
12,GTTTTGCA,-0.0475
13,AGCTCTCA,-0.173
14,CGAACGAA,0.393
15,AAGCTCTG,-0.258
16,GTTTAGTA,0.271
17,CTAAGCAA,-0.202
18,ACGAATTG,0.245
19,GATCGAAC,0.0918
20,GCGGTTAC,0.0599
21,CAAGTTTA,-0.047
22,CCCAGTGC,0.101
23,CCCCCATC,-0.167
24,CCTAATTA,-0.174
25,GTCCTTAA,-0.0655

row,Sequence,PBM E-score
1,AATCCGGC,-0.0348
2,CGTAATAG,0.247
3,TAGGTCAA,-0.0569
4,ATAGTCTA,-0.0728
5,TCCGTCCA,0.0127
6,CCACCTGC,-0.273
7,CAGTCATC,-0.0607
8,CCTTTCTC,-0.112
9,CGTACCGA,0.447
10,ACAAACAA,-0.0654
11,CTGCATCC,-0.11
12,ATATATTC,0.167
13,ACGAGGTC,0.389
14,ACCCGAAA,0.14
15,GGGTATTA,0.0254
16,CATAGAGG,-0.145
17,AGCATTAT,-0.171
18,GCGGGTAA,-0.0692
19,GGCCGTAC,0.419
20,ATACCGAG,0.107
21,CGTCATGA,-0.0328
22,CTCATTTC,-0.113
23,ATATGTGC,0.0592
24,AATTAGGC,0.0178
25,CGTGAACA,0.153

row,Sequence,PBM E-score
1,ATTTGCCC,-0.174
2,ACTGGTAC,0.137
3,TGACTAAA,-0.284
4,CTAAATAC,0.178
5,CTTGATGA,0.0629
6,TAACCAAA,-0.0322
7,TGGGCCCA,0.135
8,CCGACATA,0.0428
9,ACTAGGTA,-0.149
10,AAAAGGCT,-0.188
11,ATTGAGAA,0.182
12,ACCGTCGA,-0.216
13,GGCGTAAA,0.159
14,CGTCGAAG,0.024
15,ACCTGTCG,0.164
16,CGAAGATC,0.23
17,CGTCCATC,-0.102
18,AGTGGTAA,-0.005
19,AGGATACA,-0.162
20,GTGGCGGA,-0.152
21,CCTTGGAA,-0.179
22,CTAGTGCC,-0.265

# — the supplement of paper PMC3334620
